Measured values taken from the supplement of paper PMC12067230.
This is a noisy data set.
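Also: [psi-pin-] Saccharomyces cerevisiae expressing SupN fusions, induced by 100 µM Cu2SO4, selected 7 d at 30 °C without adenine and uracil, scored by deep sequencing of output versus input.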

Experiment: amyloid nucleation score relative to library mode (yeast Sup35 reporter selection) (log enrichment difference); higher = more amyloid nucleation; sequences are the first 22 residues of the Bri2 peptide extended by up to 12 random residues
Conditions: random library (experiment): 1;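 active = nucleation score significantly above 0 at FDR 0.05; inactive = not significantly above 0 or absent from output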
In the case of EASNCFAIRHFENKFAVETLICQMVLRAVVAMRK, the amyloid nucleation score is reported as -0.493. For EASNCFAIRHFENKFAVETLICYSDINLVIVVIS, the amyloid nucleation score was “inactive”. Work on EASNCFAIRHFENKFAVETLICGGRGNPYRFK yielded an amyloid nucleation score of 0.713. For EASNCFAIRHFENKFAVETLICYRPNR, the amyloid nucleation score was 3.16. With EASNCFAIRHFENKFAVETLICTRHSFVWLPNPP the amyloid nucleation score was “inactive”. In the case of EASNCFAIRHFENKFAVETLICQRIRRNLRVSRN, the amyloid nucleation score is reported as 2.38. For EASNCFAIRHFENKFAVETLICDP, the amyloid nucleation score was -0.102. In the case of EASNCFAIRHFENKFAVETLICIFGMRLNAMLLS, the amyloid nucleation score is reported as “inactive”. Sequence EASNCFAIRHFENKFAVETLICHECSSVCVNSSL has an amyloid nucleation score of 5.33. For EASNCFAIRHFENKFAVETLICDLTY, the amyloid nucleation score was “inactive”. With EASNCFAIRHFENKFAVETLICRRVSWMGHLSSR the amyloid nucleation score was “inactive”. For EASNCFAIRHFENKFAVETLICTWRRL, the amyloid nucleation score was “inactive”. In the case of EASNCFAIRHFENKFAVETLICIVEYMKVGMST, the amyloid nucleation score is reported as “inactive”. In the case of EASNCFAIRHFENKFAVETLICRLVFRRIKWPRR, the amyloid nucleation score is reported as 0.573. Sequence EASNCFAIRHFENKFAVETLICDHGRVKRGAVKC has an amyloid nucleation score of 0.674. With EASNCFAIRHFENKFAVETLICVPHKLGGDMSTQ the amyloid nucleation score was 3.21. With EASNCFAIRHFENKFAVETLICHYNRQSVALQN the amyloid nucleation score was “inactive”. For EASNCFAIRHFENKFAVETLICLSWFYWKPIGKG, the amyloid nucleation score was “inactive”. With EASNCFAIRHFENKFAVETLICYSDYLRMDGVGL the amyloid nucleation score was “inactive”. With EASNCFAIRHFENKFAVETLICVWVLRDVLCNCS the amyloid nucleation score was “inactive”. EASNCFAIRHFENKFAVETLICVS gave an amyloid nucleation score of 1.8. With EASNCFAIRHFENKFAVETLICLFLIILHDLYDV the amyloid nucleation score was “inactive”. In the case of EASNCFAIRHFENKFAVETLICVMFRYVVCTFRW, the amyloid nucleation score is reported as “inactive”. In the case of EASNCFAIRHFENKFAVETLICHSGS, the amyloid nucleation score is reported as “inactive”. In the case of EASNCFAIRHFENKFAVETLICQGYRCSRSENLG, the amyloid nucleation score is reported as 0.683. In the case of EASNCFAIRHFENKFAVETLICLVHCISQLPDIS, the amyloid nucleation score is reported as “inactive”. In the case of EASNCFAIRHFENKFAVETLICLVRVIRRRPGVK, the amyloid nucleation score is reported as “inactive”. With EASNCFAIRHFENKFAVETLICHSFRLNLRRKWG the amyloid nucleation score was “inactive”. For EASNCFAIRHFENKFAVETLICLGMASGLSDHKR, the amyloid nucleation score was 1.92. With EASNCFAIRHFENKFAVETLICIDVNSVCPIERK the amyloid nucleation score was “inactive”. In the case of EASNCFAIRHFENKFAVETLICNLSHSFDMIGSA, the amyloid nucleation score is reported as 5.17. In the case of EASNCFAIRHFENKFAVETLICVITNVVYRLWSC, the amyloid nucleation score is reported as “inactive”. With EASNCFAIRHFENKFAVETLICEMWKNAKGARCR the amyloid nucleation score was “inactive”. EASNCFAIRHFENKFAVETLICCRLCLCREVTAT showed an amyloid nucleation score of 0.12. With EASNCFAIRHFENKFAVETLICPVLQGGA the amyloid nucleation score was “inactive”. With EASNCFAIRHFENKFAVETLICWPWLLSLMVGVD the amyloid nucleation score was “inactive”. With EASNCFAIRHFENKFAVETLICVPENGRALYGRF the amyloid nucleation score was “inactive”. With EASNCFAIRHFENKFAVETLICKVYNSVVWLIGV the amyloid nucleation score was “inactive”. For EASNCFAIRHFENKFAVETLICETYCRQCGMTP, the amyloid nucleation score was 0.841. With EASNCFAIRHFENKFAVETLICRELLVLGTWPR the amyloid nucleation score was “inactive”.

Same assay, conditions: random library (experiment): 2
EASNCFAIRHFENKFAVETLICKHNVSSMYGPTM gave an amyloid nucleation score of 2.39. Work on EASNCFAIRHFENKFAVETLICVPKINRFYLTRE yielded an amyloid nucleation score of 5.45. For EASNCFAIRHFENKFAVETLICALRVIATAGYSA, the amyloid nucleation score was “inactive”. EASNCFAIRHFENKFAVETLICCSVDAS showed an amyloid nucleation score of 6.63. EASNCFAIRHFENKFAVETLICFSIFTQQGVLTW showed an amyloid nucleation score of 3.9. With EASNCFAIRHFENKFAVETLICTRDVTW the amyloid nucleation score was “inactive”. With EASNCFAIRHFENKFAVETLICVIKLMVFVDSWK the amyloid nucleation score was “inactive”. Work on EASNCFAIRHFENKFAVETLICCWSSCRTEKGWA yielded an amyloid nucleation score of 5.82. For EASNCFAIRHFENKFAVETLICRRYRDRVGWKVM, the amyloid nucleation score was “inactive”. Work on EASNCFAIRHFENKFAVETLICLQY yielded an amyloid nucleation score of 1.84. Sequence EASNCFAIRHFENKFAVETLICCLPVHYDPSIFE has an amyloid nucleation score of 7.92. With EASNCFAIRHFENKFAVETLICYICTV the amyloid nucleation score was 6.26. For EASNCFAIRHFENKFAVETLICGVLVYSYVRN, the amyloid nucleation score was “inactive”. In the case of EASNCFAIRHFENKFAVETLICHTNRWILVEDPP, the amyloid nucleation score is reported as “inactive”. In the case of EASNCFAIRHFENKFAVETLICEGPYSHTDEFLC, the amyloid nucleation score is reported as “inactive”. With EASNCFAIRHFENKFAVETLICICRLSDTLCTVG the amyloid nucleation score was “inactive”. For EASNCFAIRHFENKFAVETLICVTMVFFS, the amyloid nucleation score was “inactive”. With EASNCFAIRHFENKFAVETLICLFISPWQTEVVV the amyloid nucleation score was “inactive”. With EASNCFAIRHFENKFAVETLICYTRFMMEGERGE the amyloid nucleation score was 1.35. In the case of EASNCFAIRHFENKFAVETLICVNMRFKLYLRGR, the amyloid nucleation score is reported as “inactive”. With EASNCFAIRHFENKFAVETLICYKVCGVKQLML the amyloid nucleation score was “inactive”. For EASNCFAIRHFENKFAVETLICLLDGLRQLFIIL, the amyloid nucleation score was “inactive”. For EASNCFAIRHFENKFAVETLICAILQ, the amyloid nucleation score was “inactive”. For EASNCFAIRHFENKFAVETLICFENEHYHSVLPF, the amyloid nucleation score was “inactive”. For EASNCFAIRHFENKFAVETLICVIMFGWAAPRWT, the amyloid nucleation score was “inactive”. In the case of EASNCFAIRHFENKFAVETLICEMNINLALTVSM, the amyloid nucleation score is reported as 3.37. With EASNCFAIRHFENKFAVETLICRFISSLTLLSNM the amyloid nucleation score was “inactive”. In the case of EASNCFAIRHFENKFAVETLICDIFKLRRYLMEA, the amyloid nucleation score is reported as “inactive”. In the case of EASNCFAIRHFENKFAVETLICRFSGNTYRIRVV, the amyloid nucleation score is reported as “inactive”. In the case of EASNCFAIRHFENKFAVETLICFVIDNIWLSSVR, the amyloid nucleation score is reported as “inactive”.

Same assay, conditions: random library (experiment): 3
With EASNCFAIRHFENKFAVETLICNQDLDTSHSAWE the amyloid nucleation score was “inactive”. In the case of EASNCFAIRHFENKFAVETLICKKMFRSRVRCGC, the amyloid nucleation score is reported as “inactive”. For EASNCFAIRHFENKFAVETLICCPWIWFLVFLGR, the amyloid nucleation score was -0.203. For EASNCFAIRHFENKFAVETLICGDWTQTRSRSLG, the amyloid nucleation score was “inactive”. With EASNCFAIRHFENKFAVETLICVSHGISFRVS the amyloid nucleation score was “inactive”. With EASNCFAIRHFENKFAVETLICCVNESFVDRLGL the amyloid nucleation score was 7.9. With EASNCFAIRHFENKFAVETLICRQDGRVRGMPPW the amyloid nucleation score was “inactive”. In the case of EASNCFAIRHFENKFAVETLICAIRVWGRVSPWL, the amyloid nucleation score is reported as “inactive”. In the case of EASNCFAIRHFENKFAVETLICNSARLLRTSWLL, the amyloid nucleation score is reported as 5.8. For EASNCFAIRHFENKFAVETLICYVSMALVKNITV, the amyloid nucleation score was “inactive”. In the case of EASNCFAIRHFENKFAVETLICVACEMTTARDKA, the amyloid nucleation score is reported as “inactive”. EASNCFAIRHFENKFAVETLICLCVVGVNTIDLR showed an amyloid nucleation score of 4.88. With EASNCFAIRHFENKFAVETLICLMRGRVPCWSSG the amyloid nucleation score was “inactive”. EASNCFAIRHFENKFAVETLICVCVSDTDEPCCS gave an amyloid nucleation score of 5.6. In the case of EASNCFAIRHFENKFAVETLICTYRAWDWGEEWS, the amyloid nucleation score is reported as “inactive”. In the case of EASNCFAIRHFENKFAVETLICGRGRGG, the amyloid nucleation score is reported as “inactive”.
